Assay results from PubChem BioAssay AID485344 (National Center for Advancing Translational Sciences (NCATS), 2010).
Out of some 340,000 compounds screened, about 6,900 (2%) were called active. Rule as the data show it: active = inhibition above about 30%; inactive = below that, where a call was filed. This is a selection; strong and weak results do not stand in their true shares. The source gives no active or inactive call for entries shown without one.

What follows are compounds tested against D(2) dopamine receptor (Homo sapiens) (UniProt P14416) (assay: HTS Assay for Allosteric Antagonists of the Human D2 Dopamine Receptor: Primary Screen for Antagonists). Details: HEK293 TREx D2 cells, calcium flux, dopamine EC80; at 10 µM; stronger effect = higher value.
UniProt P14416, sequence (P14416 whole entry, looked up): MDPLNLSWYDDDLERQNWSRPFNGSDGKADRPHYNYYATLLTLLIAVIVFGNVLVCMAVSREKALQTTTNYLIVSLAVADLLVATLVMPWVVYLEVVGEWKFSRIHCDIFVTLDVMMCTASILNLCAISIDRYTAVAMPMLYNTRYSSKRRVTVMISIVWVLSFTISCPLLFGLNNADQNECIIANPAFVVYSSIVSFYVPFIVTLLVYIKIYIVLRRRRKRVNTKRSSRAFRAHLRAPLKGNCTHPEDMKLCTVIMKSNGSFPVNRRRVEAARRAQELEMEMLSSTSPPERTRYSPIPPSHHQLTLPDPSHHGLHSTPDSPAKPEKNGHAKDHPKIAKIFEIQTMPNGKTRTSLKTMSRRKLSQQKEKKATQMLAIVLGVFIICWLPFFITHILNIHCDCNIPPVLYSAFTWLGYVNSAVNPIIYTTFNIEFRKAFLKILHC
In short: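 Overnight-induced (tetracycline, 30 C) HEK293 T-REx cells carrying force-coupled D2 receive a no-wash calcium dye, then compound, then EC80 dopamine at 180 s; signals are read kinetically throughout.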
Also: 0% is about no effect.

Point of comparison: `COc1ccc(NC(=O)C(=O)NCCc2ccc(OC)c(OC)c2)c(OC)c1`, inhibition -9.91%. Against it:
- COc1ccc(C(=O)NCCn2cc(SCC(=O)NCCc3ccc(OC)c(OC)c3)c3ccccc32)cc1 — higher, -0.384%
- COc1cccc(NC(=O)Cn2cnc3c(nc4n3CCCCC4)c2=O)c1 — higher, 6.61%
- CCOc1ccc(CNC(=O)CCS(=O)(=O)c2cc3c(cc2Cl)NC(=O)CO3)cc1OC — higher, -0.958%
- CCOC(=O)c1ccccc1NC(=O)Nc1cc2c(cc1N1CCCCC1)n(C)c(=O)n2C — higher, 13.1%
- CCOc1ccc(Oc2nc(NCC(C)C)nc(NC(C)(C)C)n2)nn1 — higher, 13.9%
- COc1cccc(NC(=O)CCc2c(C)nc3c4cccnc4nn3c2C)c1 — higher, 5.93%
- O=C(Nc1ccc(N2CCC(c3ccccc3)C2)c(C(=O)O)c1)c1ccc(Cl)cc1 (stereo unspecified) — higher, 17.6%
- CCc1cccc(CC)c1NC(=O)c1ccc2c(c1)CCN2S(=O)(=O)c1ccccc1 — higher, -4.4%
- COc1ccccc1OCC(=O)N(Cc1ccc(Cl)cc1)CC1CCCO1 (stereo unspecified) — lower, -12.3%
- CC(=O)c1ccc(NC(=O)CC2Nc3cccc4cccc(c34)NC2=O)cc1 (stereo unspecified) — higher, 13.1%
- CSc1ccc(CCNC(=O)CCCn2nc(C)c3sc4ccccc4c3c2=O)cc1 — higher, -4.49%
- Cc1cccc(NC(=O)CN2C(=O)c3cccnc3Oc3ccc(Cl)cc32)c1C — higher, 0.638%
- CC1=Nc2cc(C(=O)NC3CCCC3)ccc2Sc2ccc(C)cc21 — higher, -1.04%
- COc1cccc(C(=O)Nc2ccccc2C(=O)OCc2cc(=O)n3c(C)csc3n2)c1 — higher, 0.795%
- COc1ccc(NC(=O)Cn2c(C)cc3ccccc3c2=O)c(OC)c1 — higher, 3.91%
- Cc1nn(-c2nc(-c3ccc(F)cc3)cc(C(F)(F)F)n2)c(C)c1Br — lower, -15.6%
- COC(=O)c1cc(C)nc2c1c(=O)nc(SCc1cccc(C)c1)n2C1CC1 — higher, 6.31%
- COCCCNC(=O)c1cnn(-c2ccccc2Cl)c1C1CCN(C(=O)OC(C)(C)C)CC1 — higher, 13.4%
- COc1ccc(CNC(=O)C2CCN(C(=O)c3ccc(-n4ccc5ccccc54)s3)CC2)cc1 — higher, -3.84%
- COC(=O)c1ccc(NC(=O)CSc2cn(CC(=O)N3CCCCCC3)c3ccccc23)cc1 — higher, -6.72%
- COc1ccc(CCNC(=O)c2cccc(-n3c(C)nc4cccnc43)c2)cc1OC — higher, -2.27%
- Cc1c(NC(=O)c2cc(-c3ccc(O)cc3)on2)c(=O)n(-c2ccccc2)n1C — higher, -8.8%
- O=C(COc1ccccc1Cl)OCc1cc(=O)n2nc(C3CC3)sc2n1 — higher, 1.91%
- COc1ccccc1CNc1nc2ccccc2c2nc(-c3cccnc3)nn12 — higher, -0.488%
- COc1ccc(Cl)cc1NC(=O)c1cc2ccc3ccc(C)[nH]c3c2n1 — higher, 25.4%
- Cn1cc(S(=O)(=O)c2ccc(Cl)cc2)c(=O)c2cc(F)c(N3CCCC3)cc21 — higher, 8.29%
- Cc1ccc(Cn2c(CNS(=O)(=O)c3ccc(C(C)(C)C)cc3)nc3cccnc32)cc1 — higher, -5.77%
- Cc1nc2sccn2c(=O)c1S(=O)(=O)NCc1ccc(F)cc1 — higher, 6.91%
- CCc1ccc(NC(=O)CSc2c(C)cnc3c2c(=O)n(C)c(=O)n3C)cc1 — higher, -6.34%
- Cn1c(=O)c2nc(SCC(=O)Nc3cc(Cl)cc(Cl)c3)n(C)c2n(C)c1=O — lower, -14.2%
- O=C(c1cc(-c2ccc(Cl)cc2)on1)N(Cc1cccc(F)c1)Cc1ccco1 — lower, -20.1%
- COc1ccc(CNc2nc(-c3ccco3)nn2C(=O)c2ccccc2Cl)cc1 — higher, -5.37%
- COc1cc(NC(=O)c2cc(-c3cccs3)on2)c(OC)cc1Cl — higher, 1.92%
- COc1ccc(-c2cc(C(=O)Nc3ccc4c(c3)OCO4)no2)cc1OC — lower, -21.7%
- COCCCn1c(=N)c(S(=O)(=O)c2ccccc2)cc2c(=O)n3cc(C)ccc3nc21 — higher, -7.62%
- COc1cccc(NC(=O)C2CCCN(c3nnc(-n4c(C)ccc4C)s3)C2)c1 (stereo unspecified) — higher, 0.628%
- Cc1ccc(OCC(=O)OCc2cc(=O)n3nc(-c4cccs4)sc3n2)cc1 — higher, -2.53%
- COc1ccccc1CNC(=O)CCCn1nc(C)c2sc3ccccc3c2c1=O — higher, 21.3%
- Cc1ccccc1OCC(=O)Nc1ccc2nc(SCC(=O)N(C)c3ccccc3)sc2c1 — lower, -17.2%
- CC(C)(C)OC(=O)N1CCC(c2c(C(=O)N3CCN(c4ccc(Cl)cc4)CC3)cnn2-c2ccc(F)cc2F)CC1 — higher, 1.78%
- Cc1ccccc1OCC(=O)N(Cc1ccc(N(C)C)cc1)CC1CCCO1 (stereo unspecified) — higher, -5.89%
- Cn1cc(-c2cc3n(n2)CCC(=O)N3CC(=O)O)c2ccccc21 — higher, -0.896%
- Cc1cccc(CNC(=O)CCCN2C(=O)CCn3nc(-c4cn(C)c5ccccc45)cc32)c1 — higher, 20.3%
- CCN1CCN(c2c(S(=O)(=O)c3ccccc3)cnc3ccc(Cl)cc23)CC1 — higher, -8.32%
- CCOc1ccc(CC(=O)NC2CC(=O)N(c3ccc(C)c(C)c3)C2)cc1 (stereo unspecified) — lower, -22%
- COc1ccccc1N(CC(=O)Nc1ccc(C)c(Cl)c1)S(=O)(=O)c1ccc(C)cc1 — higher, -1.85%
- O=C(C1CCC1)N1CCCc2cc(S(=O)(=O)Nc3ccc(F)cc3)ccc21 — higher, 13.9%
- C#CC(C)(CC)NC(=O)c1cc2c(n(-c3ccc(Cl)cc3)c1=O)CC(C)(C)CC2=O (stereo unspecified) — higher, 6.65%
- COCCn1c(C)cc(O)c(C(c2ccc(C)cc2)N2CCCCC2)c1=O (stereo unspecified) — higher, 10.1%
- CC(=O)N1CCc2cc(Br)cc(S(=O)(=O)N3CCN(c4cc(C)ccc4C)CC3)c21 — higher, 0.687%
- CC(=O)N1c2ccccc2C(=O)C1N1CCN(c2cccc(C(F)(F)F)c2)CC1 (stereo unspecified) — higher, 4.66%
- Cc1cccc(N2CCN(S(=O)(=O)c3ccc(F)c(C(=O)Nc4ccc(C(C)C)cc4)c3)CC2)c1C — higher, 6.44%
- COc1ccc(-c2noc(CN3CCN(c4cccc(Cl)c4)CC3)n2)cc1 — higher, 4.32%
- Cc1cc(C)cc(NS(=O)(=O)c2ccc3[nH]cc(C(=O)N4CCCCCC4)c(=O)c3c2)c1 — higher, 1.98%
- COc1ccc(OC)c(Nc2ncnc3c2cnn3-c2ccc(C)cc2)c1 — higher, -3.08%
- Cn1c(=O)n(C/C=C/c2ccccc2)c(=O)c2c1nc1n2CCN1c1ccc(Cl)cc1 — higher, -9.52%
- COc1ccc(Cn2c(SCc3ccc(C(=O)NCCc4ccccc4)cc3)nc3cccnc32)cc1 — higher, 20.6%
- CCN(CC)c1nn2c(=O)c(C(=O)NCc3cccc(C)c3)cnc2s1 — higher, 7.2%
- Cn1nc(-c2ccccc2F)c2cc(C(=O)N3CCN(c4ccc(F)cc4)CC3)sc21 — lower, -23.3%
- CCOC(=O)c1[nH]c(C)c(CCC(=O)NCc2ccccc2C)c1C — higher, 7.23%
- CCn1cc(S(=O)(=O)c2ccc(C)cc2)c(=O)c2cc(F)c(N3CCCCCC3)cc21 — higher, 2.39%
- Cc1ccc(NC(=O)CSc2ncnc3c2sc2ccccc23)cc1C — lower, -13.1%
- CCCN1CCN(CCCNC(=O)Cn2c(-c3cccs3)cc3ccccc32)CC1 — lower, -16.9%
- CCC(C)NC(=O)Cn1c(=O)n(Cc2ccc(C(=O)NCc3ccccc3OC)cc2)c(=O)c2ccccc21 (stereo unspecified) — higher, 4.6%
- Cc1nn(C(=O)c2cccc(F)c2)c(C)c1S(=O)(=O)N1CCCCCC1 — higher, 0.061%
- Cn1cnc(S(=O)(=O)N2CCC(C(=O)N3CCN(c4cccc(C(F)(F)F)c4)CC3)CC2)c1 — higher, 22%
- O=C(Nc1c(C(=O)c2ccccc2)oc2ccccc12)c1cc(=O)c2ccccc2o1 — lower, -16.9%
- CCOC(=O)c1c(C)[nH]c(C)c1S(=O)(=O)NCC(=O)N(C)c1ccc(C)c(C)c1 — higher, 2.19%
- COc1ccc(NC(=O)CSc2nc(-c3ccccc3)nc3cc(=O)[nH]n23)cc1 — higher, -3.93%
- CC(C)(C)c1ccc(NC(=O)CSc2nnc3scc(-c4ccccc4)n23)cc1 — higher, -4.6%
- CCOC(=O)c1cnc2c(OC)cccc2c1Nc1cccc(O)c1 — higher, 22.6%
- CSc1ncc(C(=O)Nc2ccccc2C(=O)c2ccccc2)c(C)n1 — higher, 10%
- Cc1nc2cccnc2n1-c1cccc(C(=O)NCCc2ccc(Cl)cc2)c1 — higher, 3.78%
- CCC(=O)N1CCCc2cc(S(=O)(=O)Nc3ccc(C)c(C)c3)ccc21 — higher, 3.33%
- COc1cc(CN2CCc3nc(N4CCN(c5ccccc5F)CC4)ncc3C2)ccc1OC(C)C — higher, 7.07%
- CCCCN(CC)C(=O)Cn1c(=O)n(-c2ccc(OCC)cc2)c(=O)c2c3c(sc21)CCCC3 — lower, -23.5%
- Cc1c(C(=O)Nc2ccc(Br)cc2F)sc2ncnc(N(C)C3CCCCC3)c12 — lower, -16%
- Cc1nc2c3ccccc3nc(NNC(=O)CCC(=O)N3CCN(c4ccccc4F)CC3)n2n1 — lower, -14.2%
- COc1cc(C2c3c(oc4ccc(C)cc4c3=O)C(=O)N2Cc2ccc(F)cc2)ccc1O (stereo unspecified) — higher, -4.92%
- COc1ccc(C2Nc3ccccc3-c3nnc(SC)nc3O2)cc1C (stereo unspecified) — higher, 1.3%
- Cc1ccc(C(=O)Nc2ccccc2F)cc1S(=O)(=O)N1CCOCC1 — higher, -4.13%
- Cc1ccc(NC(=O)CCC(=O)N2CCOc3ccccc32)c(Cl)c1 — higher, 17.5%
- CCn1c2ccc(F)cc2c2nnc(SCCN3CCCCC3)nc21 — higher, 13.6%

In the case of `O=C(CSc1ncccn1)NCc1ccc(Cl)cc1`, the inhibition is reported as active: 35.8%.
For `Cc1ccc(S(=O)(=O)n2ccc3cccnc32)cc1`, the inhibition was active: 37.3%.
For `Cc1ccc(Nc2nnc(C)c(=O)[nH]2)cc1`, the inhibition was active: 43.2%.
With `NNC(=O)CN1C(c2cccc(Cl)c2)=Nc2ccc(Br)cc2C1c1ccccc1` (stereo unspecified) the inhibition was active: 33.9%.
In the case of `NC(=O)C1(N2CCCCC2)CCN(Cc2ccc(Br)cc2)CC1`, the inhibition is reported as active: 36.8%.
In the case of `COC(=O)C1Cc2c([nH]c3ccccc23)C2(CCN(Cc3ccccc3)CC2)N1` (stereo unspecified), the inhibition is reported as active: 75%.
With `CC(C)C[C@H]1CN=C(Nc2ccccc2)N1CCc1ccc(F)cc1` the inhibition was active: 73.5%.
For `C[C@H](N=C1NS(=O)(=O)c2ccccc21)C(=O)OCc1cc([N+](=O)[O-])cc2c1OCOC2`, the inhibition was active: 44.6%.
With `CCCc1cc(C(=O)Nc2cccc(Cl)c2)no1` the inhibition was active: 33.1%.
For `COc1ccc(S(=O)(=O)NCC2CCCN(C(=O)c3ccco3)C2)cc1` (stereo unspecified), the inhibition was active: 31.5%.
`O=C(c1cccs1)N1CCC(C(=O)N2CCN(Cc3ccc4c(c3)OCO4)CC2)CC1` was tested, and the inhibition was active: 52.1%.
For `CCc1ccc(N(C(=O)CCC(=O)Nc2cc(C)on2)C(C(=O)NC2CCCC2)c2ccco2)cc1` (stereo unspecified), the inhibition was active: 33.5%.
